Laboratory results taken from the supplement of paper PMC3334620.
In all, about 33,000 sequences were measured (“E-score (-0.5 to 0.5)”: median about -0.054, highest 2% from about 0.39 on). The list shows a part of the results.

What follows are sequences tested against Ylr278c (UniProt Q05854) (assay: PBM E-score (8-mer binding enrichment) (E-score (-0.5 to 0.5)); higher = stronger / more preferred TF binding; most listed sequences are background and not binding sites). Details: protein concentration: 200 nM; construct: GST-DNA-binding domain.
Outline: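 E-scores (a modified Wilcoxon-Mann-Whitney statistic) were assigned by the Universal PBM Analysis Suite to every ungapped eight-base word pooled with its reverse complement. The input came from universal all-10-mer Agilent arrays made double-stranded by primer extension and probed with GST-tagged yeast transcription factors at about 100-200 nM. Fluorescent anti-GST detected bound protein, and masliner normalised the scans.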

In order of rising “PBM E-score” value:
1. CTTTAAAG  -0.389
2. CTCGTAGA  -0.357
3. CCTCTTGA  -0.327
4. ATCATGCA  -0.315
5. CAAATCAG  -0.31
6. GCCTGGCA  -0.295
7. ATGCAATA  -0.285
8. GACTGCTA  -0.277
9. AAAGCTTA  -0.255
10. AGCGCCCA  -0.248
11. ATTAGGTA  -0.247
12. CTGACTAC  -0.246
13. GCCTAGCA  -0.245
14. GTCCATAA  -0.245
15. ACGTCTTA  -0.241
16. AAGAGCTG  -0.239
17. ACTCGTAT  -0.237
18. GCTAAAAA  -0.234
19. TTATAGAA  -0.231
20. TGGTGCAA  -0.23
21. CACGCATA  -0.222
22. TTAGAGAA  -0.215
23. ACCGTACA  -0.212
24. CTCACGAG  -0.21
25. TGCCTAAA  -0.204
26. CTGGGCTC  -0.202
27. CTCTATAA  -0.198
28. CCTTCAAC  -0.196
29. ACAACCAA  -0.191
30. AGACATCT  -0.19
31. GTACGCCA  -0.188
32. ACGATCGT  -0.182
33. CCCTCAGA  -0.18
34. ACTGCAAC  -0.179
35. CCCATGAG  -0.177
36. CATGTCAG  -0.175
37. CCTGCAGC  -0.174
38. CTGGGTGC  -0.171
39. GTGTGTAA  -0.169
40. TGCCAACA  -0.166
41. TACGACGA  -0.164
42. ATAGGTGG  -0.163
43. AGTGAGCC  -0.162
44. CACTAACA  -0.16
45. AGCGTTTA  -0.158
46. CTGGTAAG  -0.157
47. TAACTAAA  -0.155
48. AAGAGGAA  -0.155
49. CACGTCCC  -0.155
50. CCCAGACC  -0.154
51. AGCAGTCA  -0.154
52. AAGGGTGA  -0.152
53. AAATGCCT  -0.152
54. AGAACCAC  -0.152
55. CCTGTTTC  -0.15
56. CAGAGTAC  -0.146
57. AAACAAAC  -0.146
58. CGAGTCCA  -0.144
59. AGACTATA  -0.144
60. CCTGCCTC  -0.143
61. AAGATCTG  -0.141
62. AGACAACA  -0.138
63. GTCCCTTA  -0.136
64. TCAGCCCA  -0.132
65. AAACTATC  -0.132
66. CCTAAATA  -0.129
67. ACACGAAC  -0.123
68. CTGATAGC  -0.122
69. ATGTGTGG  -0.121
70. CTGTCACC  -0.12
71. AGTTAGTG  -0.12
72. ACTAGGTG  -0.117
73. ATCGTCAT  -0.116
74. GATCAAAC  -0.115
75. CAATGGAC  -0.113
76. ATGTCCTA  -0.111
77. ATTGGCCA  -0.106
78. AGTCCCAC  -0.105
79. ACTTAAGG  -0.105
80. AAACCGTG  -0.104
81. AACAAGGG  -0.101
82. TATCCATA  -0.101
83. CGCCACAG  -0.0993
84. TGTAGGAA  -0.0987
85. ACGACTGG  -0.0981
86. CAATTAAA  -0.0963
87. AGCTTACA  -0.0912
88. ATGAATGA  -0.0897
89. ACTCAACG  -0.0871
90. CATATAGG  -0.0867
91. AATATCCT  -0.086
92. AATAAAAT  -0.0854
93. GAACCCCC  -0.0851
94. GAAGATGA  -0.0839
95. AGAGACCC  -0.0819
96. GCATAGGA  -0.0805
97. GAGCATAC  -0.0791
98. CGACGTCA  -0.0776
99. ACTGCATA  -0.075
100. TACTGACA  -0.0721
101. ATATTTCA  -0.0692
102. GGCTCATA  -0.0683
103. AAGCGTTC  -0.0671
104. ACATATTA  -0.0665
105. ACCATTGC  -0.0654
106. CATCTAAA  -0.0637
107. CTAGAATC  -0.06
108. GTGATCGA  -0.0596
109. ACTAAACG  -0.0591
110. ACATCCCT  -0.0585
111. AAACTAAC  -0.0564
112. AGGCCCAA  -0.0551
113. AGGTTTGA  -0.055
114. CAACGCTG  -0.0524
115. CATCACTC  -0.0512
116. ACATCATC  -0.0477
117. TCACTTCA  -0.0462
118. GGGGCCCA  -0.0453
119. GGCCTGTA  -0.0436
120. GGTGTAGA  -0.0435
121. ATTGACCC  -0.0415
122. GAAGTGGA  -0.0399
123. CTCCCAAA  -0.0387
124. GCGCATAA  -0.0332
125. GCAACAAC  -0.0286
126. ACTGTGAT  -0.027
127. GAAGTGAA  -0.0198
128. AGGTTGAA  -0.0182
129. GGTGTTAA  -0.0152
130. CAGGATCC  -0.0148
131. AGAATCTG  -0.0135
132. AAGACACC  -0.0134
133. AGCACCTC  -0.0125
134. ACCACAAC  -0.0113
135. CGAGTTAC  -0.00574
136. CAGGAGCG  -0.00543
137. ATAAGCAC  -0.00387
138. ATCTTACC  -0.00306
139. ACTTAACT  0.00817
140. TCAGCGCA  0.00893
141. AAACCAGC  0.0107
142. GAGAGCTA  0.0123
143. ATGCCTCC  0.0134
144. ACTCGTTA  0.0135
145. AAATAGAT  0.0146
146. AACGACGA  0.017
147. GGGAGGAC  0.0177
148. ATTGAAAG  0.0201
149. GATTCCCA  0.0255
150. CTCAATTC  0.0265
151. AATTTCCT  0.0327
152. ACCCCAAA  0.033
153. GCGAAACA  0.0359
154. ATCTCCAC  0.0374
155. ACTTTTGG  0.0425
156. AGTTGACG  0.0491
157. ACGGCGCT  0.0491
158. GACATGTA  0.0493
159. GTGGGGAA  0.0514
160. GATGCGCA  0.0557
161. AAGGCCAT  0.0563
162. GACCTCCA  0.0669
163. AGTAAACC  0.068
164. CGTTTCAC  0.0729
165. ATCTCCCA  0.0776
166. AGAGGTTC  0.0871
167. GAAGCCTA  0.0928
168. GAGCGAAA  0.0988
169. CGCTGCCG  0.0994
170. GGCGGTAC  0.0996
171. GCTTGGCC  0.103
172. ATTTAGCG  0.108
173. CTGCGCAC  0.108
174. TCTCTCAA  0.113
175. CGCTTGCC  0.117
176. ACCGAAGT  0.129
177. GACGGGCC  0.13
178. AGCATCCT  0.131
179. CCCGTACG  0.134
180. ACAAATAT  0.141
181. AATAGTCC  0.146
182. GGAGCGTA  0.149
183. CGCATCAA  0.169
184. GGCCAATA  0.172
185. TAGCGGCA  0.173
186. CTCGGGCC  0.175
187. CCGTTACA  0.182
188. AACGCGGC  0.183
189. CGGGGCAA  0.184
190. AAAATGGT  0.184
191. ATTAGTCC  0.192
192. GGGGCAAA  0.194
193. CGAAATAA  0.197
194. GCCGAAGA  0.216
195. CACGGACG  0.22
196. GGGAGGAA  0.224
197. GCCGCATA  0.23
198. GGAAAGCC  0.234
199. GTCCGCTA  0.244
200. GCGCCGCA  0.267
201. CGGTCTTC  0.267
202. CCGGTCAG  0.268
203. CGGACACA  0.276
204. CGAATTCC  0.28
205. GCCGGTCA  0.28
206. TATCGGGA  0.288
207. CCGTCTCC  0.298
208. CCGCCCAG  0.301
209. GGAGTATA  0.309
210. AAATACCG  0.317
211. CCGAAATA  0.326
212. AGCACCGG  0.334
213. ATCCGGTC  0.346
214. CCGCGGCC  0.361
215. ACCGGCGA  0.379
216. CATTCCGA  0.391
217. CGATTCCG  0.396
218. TCCGGCGA  0.437
219. CCGGACAA  0.444
